Data on 58 compounds can be found in publication PMC4336329 (PLoS ONE, 2015).

Molecules are shown by their SMILES. Screen size: about 310,000 compounds; about 2,200 (0.71%) showed an effect of 50% or more. The effect is printed as a negative number. The list shows a part of the results.

Chain of human ether-à-go-go-related gene (hERG) potassium channel (Q12809 whole entry, looked up): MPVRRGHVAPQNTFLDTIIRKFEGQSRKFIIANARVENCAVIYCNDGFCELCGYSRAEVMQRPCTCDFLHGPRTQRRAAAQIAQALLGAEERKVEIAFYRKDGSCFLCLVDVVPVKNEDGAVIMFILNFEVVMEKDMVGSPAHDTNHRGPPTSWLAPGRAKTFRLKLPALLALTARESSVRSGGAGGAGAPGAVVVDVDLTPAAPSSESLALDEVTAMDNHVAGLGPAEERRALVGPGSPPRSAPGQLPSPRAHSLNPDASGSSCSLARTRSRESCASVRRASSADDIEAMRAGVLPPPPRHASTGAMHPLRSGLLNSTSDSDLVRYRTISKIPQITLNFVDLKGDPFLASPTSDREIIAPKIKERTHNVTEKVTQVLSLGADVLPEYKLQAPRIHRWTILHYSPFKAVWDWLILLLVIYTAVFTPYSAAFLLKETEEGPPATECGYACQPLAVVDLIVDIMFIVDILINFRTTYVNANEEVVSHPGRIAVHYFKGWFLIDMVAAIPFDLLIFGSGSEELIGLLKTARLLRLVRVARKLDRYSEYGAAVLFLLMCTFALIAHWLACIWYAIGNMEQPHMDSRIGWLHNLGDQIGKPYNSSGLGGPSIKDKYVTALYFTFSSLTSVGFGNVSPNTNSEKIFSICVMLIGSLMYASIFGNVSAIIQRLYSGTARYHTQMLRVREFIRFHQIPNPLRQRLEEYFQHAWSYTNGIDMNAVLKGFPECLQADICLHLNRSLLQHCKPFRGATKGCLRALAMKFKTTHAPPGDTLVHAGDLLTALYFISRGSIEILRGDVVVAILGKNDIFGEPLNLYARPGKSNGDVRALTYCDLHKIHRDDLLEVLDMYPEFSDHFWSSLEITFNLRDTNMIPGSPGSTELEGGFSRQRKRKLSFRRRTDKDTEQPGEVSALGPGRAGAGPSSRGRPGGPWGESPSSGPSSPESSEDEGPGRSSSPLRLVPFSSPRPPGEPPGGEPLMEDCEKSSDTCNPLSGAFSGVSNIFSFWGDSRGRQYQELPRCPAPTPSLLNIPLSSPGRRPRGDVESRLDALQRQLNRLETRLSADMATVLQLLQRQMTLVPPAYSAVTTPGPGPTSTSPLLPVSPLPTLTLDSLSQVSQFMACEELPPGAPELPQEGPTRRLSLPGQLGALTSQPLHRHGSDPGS

This experiment addresses human ether-à-go-go-related gene (hERG) potassium channel (human, UniProt Q12809). The experiment can be described thus: primary screen, population patch clamp on CHO cells stably expressing hERG.
For the compound `CCn1cc(C(=O)NCc2ccco2)c(=O)c2cc(S(=O)(=O)N3CCCCCC3)ccc21`, the “hERG current change (%, negative = inhibition) at 1uM” value was -1.17%.

Consider `COc1ccc(N(CC(=O)NC2CCCC2)C(=O)c2ccc(C)s2)cc1OC`, for which the “hERG current change (%, negative = inhibition) at 1uM” value worked out at 18.2%.

Consider `O=C(Cc1coc(-c2ccc(F)cc2)n1)NCc1ccccc1`, for which the “hERG current change (%, negative = inhibition) at 1uM” value is on record as 16.2%. Take `CCC(C(=O)NC(C)CCc1ccco1)n1nc(C)n2c(cc3occc32)c1=O` (stereo not shown): the “hERG current change (%, negative = inhibition) at 1uM” value is recorded as 7%. The value for `Cc1ccc(C)c(CNS(=O)(=O)c2ccc3c(c2)C(C)(C)C(=O)N3C)c1` was 3.6%; that for `CN1/C(=C\C=C(C#N)C#N)C(C)(C)c2ccccc21` was 2.94%. With `CCOc1ccc(C(=O)OCC(=O)Nc2cc(C)on2)cc1OCC`, the “hERG current change (%, negative = inhibition) at 1uM” value is recorded as -16.1%. The value for `COC(=O)c1c(-c2ccc3ccccc3c2)csc1NC(=O)Cc1ccc(OC)c(OC)c1` was 10.1%; that for `CCC(CC)C(=O)Nc1ccc(Sc2ccc([N+](=O)[O-])cc2)cc1` was 0.864%; that for `COCCNC(=S)N1CCN(c2cccc(C(F)(F)F)c2)CC1` was 10.2%. Turning to `O=C(CCc1ccccc1)NCCS(=O)(=O)N1CCN(c2ccccc2)CC1`, the “hERG current change (%, negative = inhibition) at 1uM” value is listed as -1.05%.

Regarding `Cc1nnc(SCC(=O)N2CC(C)OC(C)C2)n1-c1ccccc1` (stereo not shown), the “hERG current change (%, negative = inhibition) at 1uM” value amounted to 7.77%. Take `CCN(CC)CCCNC(=O)C1CCN(C(=O)c2oc3cc4sc(N(C)C)nc4cc3c2C)CC1`: the “hERG current change (%, negative = inhibition) at 1uM” value was 6.69%. Take `NC(=O)c1ccc[n+](CC(=O)Nc2ccccc2C(=O)O)c1.[Cl-]`: the “hERG current change (%, negative = inhibition) at 1uM” value came to 2.91%. Under `CSc1ccc(S(=O)(=O)NC2CCCCCC2)cc1` stands 0.919%; under `C=CCOC(=O)C1=C(C)NC(SCC)=C(C#N)C1c1ccc(Cl)cc1` (stereo not shown), 14%; under `CC(O)c1ccc(OCCN(C)c2ccccn2)cc1` (stereo not shown), 13.4%. The value for `CCOc1cccc(CNc2nnnn2C)c1` was 15.9%; that for `CCN(CC)S(=O)(=O)c1ccc(/C=C/C(=O)OCC(=O)c2c(N)n(C)c(=O)n(C)c2=O)cc1` was 12.2%; that for `Cc1cccc(NC(=O)NCCc2ccc(Cl)cc2)c1` was 16.1%. Under `COc1ccc(N(C(=O)Cn2nnc(-c3ccc(Cl)cc3)n2)C(C(=O)NCC2CCCO2)c2ccncc2)cc1` (stereo not shown) stands 7.6%. As for `Cc1ccc(S(=O)(=O)N/N=C2/CC(=O)CC(C)(C)C2)cc1[N+](=O)[O-]`, the “hERG current change (%, negative = inhibition) at 1uM” value turned out to be 4.64%. The value for `Cc1ccc(C(=O)CSc2ncnc3ccccc23)o1` was 2.02%.

On to `Cc1ccc(S(=O)(=O)CCC(O)c2ccc(Cl)cc2)cc1` (stereo not shown), for which the “hERG current change (%, negative = inhibition) at 1uM” value came to 10.7%.

As to `COc1cccc(/C=C(/C(=O)OCC(=O)NCC2CCCO2)c2ccccc2)c1` (stereo not shown), the “hERG current change (%, negative = inhibition) at 1uM” value worked out at 11.3%.

As to `O=C(O)c1cnn2c(C(F)F)cc(C3CC3)nc12`, the “hERG current change (%, negative = inhibition) at 1uM” value was determined as 6.54%.

`Cc1cc(C)cc(NC(=O)N2CCC(NC(=O)c3ccccc3C)CC2)c1`: the “hERG current change (%, negative = inhibition) at 1uM” value is 14.4%. The value for `Cn1c(=O)[nH]c2ncn(C)c2c1=O` was 5.73%; that for `CCOc1ccc([N+](=O)[O-])cc1CNCCc1ccccc1.Cl` was -13.8%; that for `O=C(O)C1CCCN1C(=O)OCC1c2ccccc2-c2ccccc21` (stereo not shown) was 12.1%. Under `COc1ccc(S(=O)(=O)NC(C)C(=O)NCC2CCCO2)cc1OC` (stereo not shown) stands 18.4%; under `COc1cc2c(cc1OC)C(c1ccc(-c3ccc(Cl)cc3Cl)o1)=NCC2`, 13.2%; under `C=C(C)COc1ccc(-c2n[nH]c(C)c2Oc2ccccc2OC)c(O)c1`, 1.2%.

Consider `CN1CCC(C)(O)C2CCCCC21` (stereo not shown), for which the “hERG current change (%, negative = inhibition) at 1uM” value turned out to be 8.69%. The value for `CCNc1nc(Oc2ccc(=O)[nH]n2)nc(N2CCOCC2)n1` was 20.2%. Under `O=C(NCc1ccc(Cl)cc1Cl)c1ccc2nc[nH]c2c1` stands 10.6%; under `O=c1[nH]c2ccc(S(=O)(=O)N3CCN(c4ccc(F)cc4)CC3)cc2o1`, -4.24%. Under `CN(C)S(=O)(=O)c1cc(C(=O)NCc2ccccc2)c(Cl)cc1Cl` stands -1.09%; under `CN(/N=C/c1ccncc1)c1cnc2ccccc2n1`, 12%; under `CC(=O)CSc1nnc(-c2ccc(S(=O)(=O)N3CCCC3)cc2)n1C`, 19.6%. As for `O=C(N/N=C/c1ccccn1)c1cc(-c2ccncc2)nc2ccccc12`, the “hERG current change (%, negative = inhibition) at 1uM” value is 8.53%. `CC(=O)c1ccc(N(CC(=O)NC2CCCCC2)C(=O)CNC(=O)c2cccs2)cc1`: the “hERG current change (%, negative = inhibition) at 1uM” value was 16.4%. The value for `NC(=O)C1CNc2ccccc2O1` (stereo not shown) was -1.31%; that for `CC(=O)Nc1cccc(OCC(=O)Nc2ccccc2)c1` was 10%; that for `c1ccc(-c2ccc(-c3cnc4n3CCCCC4)cc2)cc1` was 0.861%. Under `Cc1ccc(Cn2nnc3c(=O)n(CC(=O)NCc4ccccc4)cnc32)cc1` stands 1.33%; under `Clc1ccccc1CN1CCN(/N=C/C=C\c2ccco2)CC1`, 11.9%; under `Cc1ccc(C2Nc3ccccc3C(=O)N2CCN2CCNC2=O)cc1` (stereo not shown), 5.34%. On to `O=c1c2nnn(-c3cccc(F)c3)c2ncn1Cc1ccccn1`, for which the “hERG current change (%, negative = inhibition) at 1uM” value came out at 8.1%. For the compound `CCOC(=O)/C=C1\SCC(=O)N1CC(=O)NCc1cccc(Cl)c1`, the “hERG current change (%, negative = inhibition) at 1uM” value was -0.928%. Under `COc1ccc(NC(=O)Cn2c3ccccc3c3nc4n(c(=O)c32)CCS4)cc1` stands 8.08%; under `COc1ccc(C(=O)NC2CC3CCCC(C2)N3CC(C)C)cc1OC` (stereo not shown), 8.35%. The value for `O=c1[nH]cnc2c1C1(CCCC1)Cc1ccccc1-2` was 11.3%; that for `O=C(O)CCC(=O)OCC1CCCCC1` was 4.52%; that for `Cc1ccc(NC(=O)C2CC(=O)N/C(=N/NC(=O)c3ccc(C)cc3)S2)cc1` (stereo not shown) was 10.1%. The value for `CCOc1ccccc1CN1CCNC(=O)C1CC(=O)N(C)C1CCOCC1` (stereo not shown) was 12.2%.

As to `Cc1ccc(-c2csc3ncnc(SCC(=O)NCC4CCCO4)c23)cc1` (stereo not shown), the “hERG current change (%, negative = inhibition) at 1uM” value is reported as 1.98%.

Turning to `O=C(NCCC1CCCCN1S(=O)(=O)c1ccccc1)C(=O)Nc1ccc(F)cc1` (stereo not shown), the “hERG current change (%, negative = inhibition) at 1uM” value is 10.2%.
